# Results from the supplement of paper PMC4723716.
# ± gives the uncertainty stated by the source. Whole data set: some 9,900 compounds, median “viability index relative to DMSO control” near 1, cut for the lowest 2% near 0.85. This is one part of the list.
# System: Plasmodium falciparum NF54 stage V gametocytes
# Experiment: viability index relative to DMSO control (fraction); higher = less gametocyte killing
# Conditions: 2.5 µM, incubation time: 72 h
# How it was run: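 P. falciparum NF54 stage V gametocytes in serum-free screening medium (0.75% gametocytemia, 1.25% hematocrit, 10 µl) were incubated with compound at 2.5 µM in 1,536-well plates for 72 hr at 37°C under low oxygen. Then 3 µl of 2.5 µM MitoTracker Red CMXRos plus 0.13% saponin was added for one to two hours. One field per well was imaged, 20–70 µm2 red particles were counted, and the viability index was the count divided by the plate mean of DMSO wells.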
# [1] = library set: Broad Institute DOS
Compound,viability index [1],viability index (library set: Broad Institute Blood Stage)
N#C[C@@H]1[C@@H](c2ccc(C#Cc3cccc(F)c3)cc2)[C@H](CO)N1C(=O)C1CCOCC1,0.997 ± 0.057,
C/C=C/c1ccc([C@@H]2[C@@H]3CN(C(=O)Nc4ccc(C(F)(F)F)cc4)C[C@H]2N3)cc1,0.868 ± 0.081,
CO[C@@H](CN(C)C(=O)c1cnccn1)[C@@H](C)CN([C@@H](C)CO)S(=O)(=O)c1ccccc1,1.01 ± 0.048,
O=C(Nc1ccccc1F)N1C[C@@H]2[C@H](c3ccccc31)[C@H](CO)N2C(=O)Cc1cccnc1,1.02 ± 0.015,
C[C@@H]1CCCCO[C@H](CN(C)C(=O)c2ccncc2)[C@@H](C)CN([C@@H](C)CO)C(=O)c2cc(NC(=O)CCC(F)(F)F)ccc2O1,1.08 ± 0.017,
C[C@H](CO)N1C[C@H](C)[C@H](CN(C)C(=O)NC2CCCCC2)OCc2ccccc2-c2c(n(C)c3ccccc23)C1=O,0.9728 ± 0.001,
N#Cc1ccc(-c2ccc([C@@H]3[C@@H](CO)N4C(=O)CNC[C@H]34)cc2)cc1,1 ± 0.057,
N#C[C@H]1[C@@H](c2ccc(C3=CCCCC3)cc2)[C@@H](CO)N1C(=O)Nc1ccccc1F,1.0169 ± 0.00043,
O=C(C[C@@H]1C[C@@H]2c3cc(NS(=O)(=O)c4ccccc4)ccc3O[C@@H]2[C@@H](CO)O1)N1CCOCC1,0.988 ± 0.15,
COCC(=O)Nc1ccc2c(c1)C(=O)N(C)[C@H]1CC[C@H](CC(=O)NC3Cc4ccccc4C3)O[C@H]1CO2,1.16 ± 0.086,
CCS(=O)(=O)N1[C@H](C#N)[C@H](c2ccc(C#CCC3CCCC3)cc2)[C@@H]1CO,1.05 ± 0.041,
CO[C@@H]1CN(C)C(=O)c2cc(NC(=O)c3ccc4c(c3)OCO4)ccc2OC[C@H](C)N(CCC(F)(F)F)C[C@H]1C,1.07 ± 0.017,
C[C@@H]1CCCCO[C@@H](CN(C)C(=O)c2ccncc2)[C@@H](C)CN([C@H](C)CO)C(=O)c2cc(NS(=O)(=O)c3cccs3)ccc2O1,1.15 ± 0.064,
CO[C@H](CN(C)CC1CCOCC1)[C@@H](C)CN(C(=O)Nc1ccc(F)cc1)[C@@H](C)CO,1.087 ± 0.0089,
C[C@H](CO)N1C[C@H](C)[C@@H](CN(C)C(=O)c2ccncc2)OCCCC[C@H](C)Oc2ccc(NS(=O)(=O)c3cccs3)cc2C1=O,1.07 ± 0.078,
O=C(C[C@@H]1CC[C@@H](NS(=O)(=O)c2ccc(F)cc2)[C@@H](CO)O1)N1CCN(c2ccccc2)CC1,1.08 ± 0.042,
COCC(=O)N1C[C@@H]2[C@H](c3ccccc31)[C@H](CO)N2C(=O)c1ccccc1F,0.98 ± 0.013,
CCCNC(=O)N1[C@@H](CO)[C@H](c2ccccc2)C12CN(C(=O)C1CCCCC1)C2,1.02 ± 0.091,
Cc1noc(C)c1NC(=O)Nc1ccc2c(c1)CC(=O)N([C@H](C)CO)C[C@@H](C)[C@H](CN(C)Cc1ccc(C(F)(F)F)cc1)O2,1.04 ± 0.076,
CCCC(=O)Nc1ccc2c(c1)C(=O)N(C)C[C@H](OC)[C@H](C)CN(C(=O)c1ccccn1)[C@@H](C)CO2,1.07 ± 0.045,
CCCC#Cc1ccc([C@H]2[C@@H](CO)N[C@@H]2CN(C(C)=O)C2CCCC2)cc1,0.91 ± 0.063,
Cc1noc(C)c1NC(=O)N(C)C[C@H]1Oc2ccc(NC(=O)Cc3cn(C)c4ccccc34)cc2CC(=O)N([C@@H](C)CO)C[C@@H]1C,0.991 ± 0.059,

Compound,viability index [1],viability index (library set: Broad Institute Blood Stage)
CCCNC(=O)Nc1ccc2c(c1)OC[C@@H](C)N(S(C)(=O)=O)C[C@@H](C)[C@H](OC)CN(C)C2=O,1.01 ± 0.026,
COc1ccc2c3c([C@@H](CO)NC[C@]33CN(C3)C(=O)Nc3ccccc3F)n(C)c2c1,1.035 ± 0.0084,
COc1ccccc1S(=O)(=O)N[C@@H]1C=C[C@@H](CC(=O)N2CCOCC2)O[C@H]1CO,1.13 ± 0.041,
Cc1ccc(S(=O)(=O)N(C)C[C@@H]2OCc3ccccc3-c3c(n(C)c4ccccc34)C(=O)N([C@@H](C)CO)C[C@@H]2C)cc1,,0.728 ± 0.062
C[C@@H]1CN([C@H](C)CO)C(=O)c2cc(NC(=O)C3CC3)ccc2O[C@@H]1CN(C)S(=O)(=O)c1ccccc1,0.877 ± 0.27,
COc1ccc(S(=O)(=O)Nc2ccc3c(c2)CC(=O)N([C@@H](C)CO)C[C@H](C)[C@H](CN(C)Cc2ccc(C(=O)Nc4ccccc4N)cc2)O3)cc1,0.993 ± 0.024,
COc1ccc(S(=O)(=O)N2C[C@@H](O)COC[C@@H]3O[C@@H](CC(=O)N[C@H]4CCN(Cc5ccccc5)C4)CC[C@H]32)cc1,0.8771 ± 0.005,
CC(=O)N1[C@H](CO)[C@H](c2ccc(-c3ccccc3F)cc2)[C@@H]1CNC(C)C,1.04 ± 0.032,
C[C@H](CO)N1C[C@H](C)[C@H](CN(C)S(=O)(=O)c2ccccc2)OCCCC[C@H](C)Oc2ccc(NC(=O)Nc3ccc4c(c3)OCO4)cc2C1=O,1.018 ± 0.0033,
N#Cc1cccc(-c2ccc3c(c2)[C@H]2[C@H](CCN2C(=O)c2ccccc2F)[C@@H](CO)N3)c1,1.01 ± 0.063,
COc1ccc2c3c([nH]c2c1)[C@H](CO)N(Cc1ccccc1F)C[C@]31CN(CC2CC2)C1,0.985 ± 0.05,
C[C@H]1CN([C@@H](C)CO)C(=O)c2cccc(NC(=O)c3ccncc3)c2O[C@H]1CN(C)Cc1ccc2c(c1)OCO2,1.02 ± 0.062,
C/C=C/c1ccc([C@@H]2[C@@H](CO)N3C(=O)CN(S(=O)(=O)c4ccccc4)C[C@@H]23)cc1,0.777 ± 0.16,
C[C@H]1CN([C@@H](C)CO)C(=O)c2ccccc2-c2ccccc2CO[C@H]1CN(C)C(=O)Nc1ccc(-c2ccccc2)cc1,0.724 ± 0.14,
COc1ccc(C#Cc2ccc([C@H]3[C@@H](CO)N4C(=O)CN(C(=O)NC(C)C)C[C@@H]34)cc2)cc1,0.986 ± 0.014,
O=C(C[C@H]1C=C[C@@H](NC(=O)Cc2ccccn2)[C@H](CO)O1)NCCc1ccncc1,0.9 ± 0.049,
COc1ccc(CNC(=O)N(C)C[C@@H]2OCc3ccccc3-c3c(n(C)c4ccccc34)C(=O)N([C@H](C)CO)C[C@@H]2C)cc1,0.965 ± 0.047,
C[C@H]1CN([C@@H](C)CO)C(=O)c2ccccc2-c2ccccc2CO[C@@H]1CN(C)C(=O)Nc1ccnc(N2CCOCC2)c1,1.02 ± 0.2,
Cc1ccc(S(=O)(=O)N2C[C@@H]3N[C@H](C2)[C@@H]3c2ccc(-c3ccc(C(=O)N(C)C)cc3)cc2)cc1,1.08 ± 0.018,
C/C=C/c1ccc([C@H]2[C@@H](CNC(C)C)N(C(=O)c3ccccn3)[C@H]2CO)cc1,0.972 ± 0.042,
COc1ccc2c3c([C@H](CO)N(CC4CCOCC4)C[C@]33CN(Cc4nccs4)C3)n(C)c2c1,1.08 ± 0.019,
CO[C@@H]1CN(C)C(=O)c2ccc(NC(=O)c3cccc(F)c3)cc2OC[C@@H](C)NC[C@@H]1C,1.04 ± 0.032,
